The whole screen tested about 390,000 compounds, of which about 4,700 (1.2%) were called active. Inconclusive results, whose numbers are uncertain, are shown with a selection of clear calls. The call rests on the fitted dose curve; in most records, active means well fitted inhibition curve with a large enough effect; inconclusive means small, poorly fitted or top-dose-only effect, or another doubt; inactive means no such curve, though single readings can be large or run the other way. A potency beside an inconclusive call is a rough fit, not a confirmed value.
These molecules were tested against DNA polymerase eta (Homo sapiens) (UniProt Q9Y253) (assay: qHTS for Inhibitors of Polymerase Eta). Details: recombinant Pol eta, fluorescent DNA replication assay; series mostly up to 114 µM.
UniProt Q9Y253, sequence (Q9Y253 whole entry, looked up): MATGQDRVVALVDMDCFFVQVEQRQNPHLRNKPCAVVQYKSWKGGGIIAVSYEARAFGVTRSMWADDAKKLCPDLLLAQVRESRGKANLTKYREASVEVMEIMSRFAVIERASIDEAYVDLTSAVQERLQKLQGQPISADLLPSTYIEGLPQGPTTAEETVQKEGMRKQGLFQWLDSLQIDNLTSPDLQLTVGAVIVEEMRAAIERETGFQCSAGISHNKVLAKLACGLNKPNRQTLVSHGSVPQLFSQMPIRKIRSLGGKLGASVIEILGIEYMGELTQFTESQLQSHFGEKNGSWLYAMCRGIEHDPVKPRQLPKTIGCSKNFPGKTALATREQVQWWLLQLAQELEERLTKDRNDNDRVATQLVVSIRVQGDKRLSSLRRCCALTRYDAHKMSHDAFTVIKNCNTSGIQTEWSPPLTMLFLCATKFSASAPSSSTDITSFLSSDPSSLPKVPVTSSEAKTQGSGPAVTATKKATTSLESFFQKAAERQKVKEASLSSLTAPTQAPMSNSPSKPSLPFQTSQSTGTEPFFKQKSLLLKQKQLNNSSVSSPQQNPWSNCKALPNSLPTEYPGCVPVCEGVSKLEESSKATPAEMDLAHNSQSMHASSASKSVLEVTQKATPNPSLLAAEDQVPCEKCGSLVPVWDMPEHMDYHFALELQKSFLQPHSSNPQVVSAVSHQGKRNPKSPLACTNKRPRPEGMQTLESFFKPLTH
In short: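 Fluorescent replication assay: 50 nM final substrate added after a 15 min room-temperature compound preincubation with 10 nM enzyme. Signal taken at 0 min and again at 10 min.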
With `Cc1cc(OCC(=O)OCC(=O)N2CCCc3ccccc32)ccc1Cl` the Potency was “inactive”. For `Nc1ncnc(NCc2ccc(F)cc2)c1[N+](=O)[O-]`, the Potency was inconclusive: 89.1 µM [inhibitor, partial curve, poor fit]. `O=C(N/N=C/c1ccccn1)c1sc2ccccc2c1Cl` was tested, and the Potency was inconclusive: 56.2 µM [inhibitor, partial curve, poor fit]. For `COc1ccc(-c2nc(SCC(=O)Nc3cc(C)on3)n[nH]2)cc1`, the Potency was inconclusive: 11.2 µM [inhibitor, partial curve]. For `O=c1[nH]c2cc(F)ccc2c2ccc(F)cc12`, the Potency was active: 20 µM. With `CCOc1cc(C2Nc3cccc4cccc(c34)N2)ccc1O` the Potency was active: 79.4 µM. In the case of `CCN(CC)c1ccc(/C=C2\C(=O)N(c3nnc(C)c(=O)[nH]3)N=C2C)cc1`, the Potency is reported as inconclusive: 79.4 µM [inhibitor, partial curve]. `COc1nc(Nc2ccc(O)cc2)nc(OC(C(F)(F)F)C(F)(F)F)n1` was tested, and the Potency was inconclusive: 50.1 µM [inhibitor, partial curve, poor fit]. In the case of `CC(=O)N1CCCc2cc(S(=O)(=O)N3CCCC(C(=O)Nc4cc(Cl)ccc4C)C3)ccc21` (configuration not stated), the Potency is reported as “inactive”. In the case of `O=C(C1CCCN(S(=O)(=O)c2ccc(Br)s2)C1)N1CCN(c2ccccc2)CC1` (configuration not stated), the Potency is reported as inconclusive: 89.1 µM [inhibitor, partial curve, poor fit]. In the case of `CCN1C2=C(C(=O)CCC2)C(c2ccc(O)c(Br)c2)C2=C1CCCC2=O`, the Potency is reported as inconclusive: 100 µM [inhibitor, single point]. With `CCOC(=O)NCc1ccc(S(=O)(=O)Nc2ccccc2C)cc1` the Potency was inconclusive: 28.2 µM [inhibitor, partial curve, poor fit]. In the case of `COc1ccc(C(=O)OCC(=O)c2ccco2)cc1[N+](=O)[O-]`, the Potency is reported as inconclusive: 25.1 µM [inhibitor, single point]. `O=c1[nH]c(O)c(/C=C2\C=Nc3ccc(Br)cc32)[nH]1` was tested, and the Potency was inconclusive: 39.8 µM [inhibitor, partial curve, poor fit]. For `CC(Oc1cccc(Cl)c1)C(=O)Nc1cc(Cl)ccc1N1CCOCC1` (configuration not stated), the Potency was “inactive”. In the case of `O=C(N/N=C/C=C/c1ccccc1[N+](=O)[O-])c1cc(-c2ccccc2)n[nH]1`, the Potency is reported as inconclusive: 20 µM [inhibitor, partial curve, poor fit]. For `Cn1c(N)c(C(=O)COC(=O)/C=C/c2ccc(Cl)cc2)c(=O)n(C)c1=O`, the Potency was inconclusive: 17.8 µM [inhibitor, partial curve, poor fit]. In the case of `Fc1cccc(-n2cc(-c3ccccc3)c3c(=S)nc[nH]c32)c1`, the Potency is reported as “inactive”. With `O=C(Nc1ccc(F)cc1)Nc1cccc(Br)c1` the Potency was inconclusive: 79.4 µM [inhibitor, partial curve, poor fit]. For `CCOc1nc(Nc2ccc([N+](=O)[O-])cc2)nc(NC(C)(C)C)n1`, the Potency was inconclusive: 100 µM [inhibitor, partial curve, poor fit]. `COc1cccc(NC(=O)CN2CCc3ccccc3C2)c1` was tested, and the Potency was “inactive”. With `CCOc1cccc(N(C(=O)CCC(=O)Nc2cc(C)on2)C(C(=O)NC(C)(C)C)c2ccc(OC)cc2)c1` (configuration not stated) the Potency was inconclusive: 44.7 µM [inhibitor, partial curve, poor fit]. With `C=CCn1c(COc2ccccc2F)nnc1SCC(=O)NC(=O)NCc1ccco1` the Potency was inconclusive: 50.1 µM [inhibitor, partial curve, poor fit]. With `COc1ccc(-n2ncc(C(=O)N3CCc4ccccc4C3)c2C2CCN(C(=O)OC(C)(C)C)CC2)cc1` the Potency was “inactive”. With `CCCCc1cc(=O)oc2cc(OCc3nn[nH]n3)c(Cl)cc12` the Potency was inconclusive: 39.8 µM [inhibitor, partial curve, poor fit]. For `S=c1[nH]nc(-c2cc(-c3ccccc3)n[nH]2)n1/N=C/c1c(Cl)cccc1Cl`, the Potency was active: 79.4 µM. `Cc1ccc(S(=O)(=O)N2[C@@H](c3ccc(C(C)(C)C)cc3)C(C(=O)O)=CC[C@H]2c2cccc(Cl)c2)cc1` was tested, and the Potency was active: 89.1 µM. With `Cc1c(C(=O)OC2CCCC2)[nH]c2c1C(=O)CC(c1ccco1)C2` (configuration not stated) the Potency was inconclusive: 15.8 µM [inhibitor, full curve, poor fit]. `Cc1cccc(C)c1NC(=O)CN1CCN(C(=O)c2ccc(OCc3cn4ccccc4n3)cc2)CC1` was tested, and the Potency was inconclusive: 39.8 µM [inhibitor, single point]. `COc1ccc(-c2cc(C(F)(F)F)n3nc(C(=O)NCC45CC6CC(CC(C6)C4)C5)cc3n2)cc1` was tested, and the Potency was “inactive”. `Cc1cc(O)c2c(c1O)C(=O)[C@]13C(=C2O)C(=O)[C@@H]2[C@@H](O)[C@H]1[C@@H]1[C@H](O)[C@H]3C(=O)C3=C(O)c4c(O)cc(C)c(O)c4C(=O)[C@]312` was tested, and the Potency was active: 5.62 µM. With `COc1ccc(-c2ccc(C#N)c(SCC(=O)Nc3sc4c(c3C#N)CCC4)n2)cc1OC` the Potency was inconclusive: 79.4 µM [inhibitor, partial curve]. In the case of `Cc1cc(/C=C2\SC(=S)NC2=O)c(C)[nH]1`, the Potency is reported as active: 20 µM. In the case of `Cc1c(N=C2N=C(NC(=O)c3ccc(F)cc3)c3ccccc32)c(=O)n(-c2ccccc2)n1C`, the Potency is reported as inconclusive: 89.1 µM [inhibitor, single point]. With `O=C(COc1ccccc1)Nc1nnc(S(=O)(=O)N2CCCC2)s1` the Potency was inconclusive: 79.4 µM [inhibitor, single point]. In the case of `Cc1ccc(OCCn2c(=S)[nH]c3ccccc32)c(C(C)C)c1`, the Potency is reported as “inactive”. For `Cc1ccc(NC(=O)CSc2nc(O)cc(=O)n2-c2ccc(C)cc2)cc1`, the Potency was “inactive”. `O=C(/C=C/c1cn(CC(O)CN2CCCCC2)c2ccccc12)c1cccs1` (configuration not stated) was tested, and the Potency was inconclusive: 50.1 µM [inhibitor, partial curve, poor fit]. `O=C(Nc1ccc(F)cc1)C(=O)c1c(O)[nH]c2ccc([N+](=O)[O-])cc12` was tested, and the Potency was inconclusive: 63.1 µM [inhibitor, partial curve, poor fit]. In the case of `CCOc1ccc2[nH]c3c(NCCN(CC)CC)ncnc3c2c1`, the Potency is reported as inconclusive: 79.4 µM [inhibitor, partial curve, poor fit]. With `Cc1nc2ccccc2nc1N/N=C/c1ccc(O)cc1O` the Potency was inconclusive: 56.2 µM [inhibitor, partial curve, poor fit]. With `O=C(N/N=C/c1c[nH]c2ccccc12)c1cc(-c2ccccc2)n[nH]1` the Potency was inconclusive: 22.4 µM [inhibitor, full curve]. `COc1cc(NC(=O)c2ccc(-c3nc(COc4ccccc4)c(C)o3)cc2)cc(OC)c1` was tested, and the Potency was “inactive”. `O=C1Nc2ccccc2C(O)(C(=O)NCc2ccco2)N1c1ccc(Cl)c(Cl)c1` (configuration not stated) was tested, and the Potency was inconclusive: 20 µM [inhibitor, partial curve, poor fit]. In the case of `CCOC(=O)Cc1cc(=O)n(-c2nc3ccccc3s2)[nH]1`, the Potency is reported as inconclusive: 50.1 µM [inhibitor, partial curve]. In the case of `O=C1C=CC(=O)c2c(O)c(N3CCN(CCO)CC3)c(Cl)c(O)c21`, the Potency is reported as active: 1.78 µM. `CCOC(=O)c1c(C)[nH]c(C(=O)COC(=O)c2ccc([N+](=O)[O-])o2)c1C` was tested, and the Potency was inconclusive: 28.2 µM [inhibitor, partial curve, poor fit]. For `O=C(Nc1nc(-c2cccc3ccccc23)cs1)c1cnccn1`, the Potency was inconclusive: 17.8 µM [inhibitor, partial curve, poor fit]. `CCc1ccc2[nH]c3nc(C)cc(C)c3c(=O)c2c1` was tested, and the Potency was inconclusive: 11.2 µM [inhibitor, partial curve, poor fit]. `COc1cc(C(=O)NC2Cc3ccccc3C2)ccc1OC1CCN(C(C)=O)CC1` was tested, and the Potency was inconclusive: 1.26 µM [inhibitor, partial curve, poor fit]. `CC(=O)c1c(C)nn(CCC(=O)O)c1C` was tested, and the Potency was inconclusive: 31.6 µM [inhibitor, single point]. For `COC(=O)c1ccc(COc2ccc(/C=C/C(=O)c3ccc(OC)c(CSCC(=O)O)c3)cc2OC)cc1`, the Potency was active: 20 µM. For `O=C(COC(=O)c1cc([N+](=O)[O-])ccc1N1CCOCC1)Nc1ncc(Cl)cc1Cl`, the Potency was inconclusive: 28.2 µM [inhibitor, full curve]. With `O=C1C=CC2(O[C@H](c3ccccc3)[C@@H](c3ccccc3)O2)[C@H](Sc2ccccc2O)C1` the Potency was inconclusive: 15.8 µM [inhibitor, partial curve, poor fit]. For `COc1ccc(OC)c(-c2csc(NC(=O)Cn3[nH]c(=O)c4ccccc4c3=O)n2)c1`, the Potency was inconclusive: 44.7 µM [inhibitor, full curve, poor fit]. For `O=C(CCC(=O)c1cccs1)Nc1ccc(N2CCCCC2)cc1`, the Potency was active: 89.1 µM. In the case of `Cc1ccc2nc(/C(C#N)=C/c3ccc(O)c(O)c3)[nH]c2c1`, the Potency is reported as inconclusive: 4.47 µM [inhibitor, full curve, poor fit]. With `O=[N+]([O-])c1ccc(/C=N/n2c(CO)nc3ccccc32)s1` the Potency was inconclusive: 14.1 µM [inhibitor, full curve, poor fit]. `CCCCC1C(=O)CC[C@H]2[C@@H]1CC(=O)[C@@H]2C/C=C\CCCC(=O)O` (some centres not stated) was tested, and the Potency was inconclusive: 89.1 µM [inhibitor, single point]. In the case of `Cc1ccc(C(=O)OCC(=O)NCCc2ccc(S(N)(=O)=O)cc2)o1`, the Potency is reported as inconclusive: 35.5 µM [inhibitor, partial curve, poor fit]. `Cc1cc(C)c(S(=O)(=O)Nc2cc(SCC(=O)O)c(O)c3ccccc23)cc1C` was tested, and the Potency was active: 35.5 µM. For `C=CCN(C(=O)Cc1cccs1)c1nc(-c2ccc(S(C)(=O)=O)cc2)cs1`, the Potency was “inactive”.

Reference: PubChem BioAssay AID588591 (National Center for Advancing Translational Sciences (NCATS), 2011)
Potency means the concentration at half of the fitted maximal effect; tags describe the fitted curve by direction and shape.
